Results as given in the antibiotic and cytotoxicity screens of Wong et al. (2023).
Some of the results follow.

Columns and labels:
[1] = test system: HSkMC (human skeletal muscle cells); assay: cytotoxicity call (relative viability < 0.9); conditions: 10 µM
[2] = test system: HepG2; assay: cytotoxicity call (relative viability < 0.9); conditions: 10 µM
[3] = test system: S. aureus RN4220; assay: growth inhibition call (relative growth <= 0.2); conditions: 50 µM

Row | Compound | cytotoxicity call [1] | cytotoxicity call [2] | growth inhibition call [3]
1 | CN(C)CCCN1c2ccccc2CCc2ccc(Cl)cc21.Cl | inactive | inactive | inactive
2 | C[C@@H]1CN([C@H](C)CO)C(=O)Cc2cc(NS(C)(=O)=O)ccc2O[C@H]1CN(C)C | inactive | inactive | inactive
3 | CCOC(=O)c1cccc(C(=O)O)n1 | inactive | inactive | inactive
4 | COC[C@H]1CN(C(=O)c2cscn2)N1C | inactive | inactive | inactive
5 | C[C@@H]1CN([C@@H](C)CO)C(=O)Cc2cc(NS(=O)(=O)c3cn(C)cn3)ccc2O[C@H]1CN(C)C | inactive | inactive | inactive
6 | C[C@H]1CN([C@@H](C)CO)C(=O)c2cccc(NC(=O)C3CCCCC3)c2O[C@@H]1CN(C)C(=O)Nc1ccc(C(F)(F)F)cc1 | inactive | inactive | inactive
7 | C[C@H](O)[C@H](O)[C@H]1CNc2[nH]c(N)nc(=O)c2N1 | inactive | inactive | inactive
8 | O=C1CC2(CCCC2)CC(=O)N1 | inactive | inactive | inactive
9 | Cc1ncc(CO)c(CN)c1O | inactive | inactive | inactive
10 | O=C1N[C@H]2[C@@H]1[C@@H]1C=C[C@H]2C1 | inactive | inactive | inactive
11 | C[C@@H]1CN([C@@H](C)CO)C(=O)c2cc(NC(=O)Nc3ccccc3)ccc2O[C@@H](C)CCCCO[C@H]1CN(C)S(=O)(=O)c1ccc(C(F)(F)F)cc1 | inactive | inactive | inactive
12 | COc1cccc(C)c1NC(=O)O[C@H]1[C@H](OC(=O)Nc2ccccc2-c2ccccc2)[C@H](OC(=O)Nc2ccccc2-c2ccccc2)[C@@H](OC)O[C@@H]1CO | inactive | inactive | inactive
13 | OCCN(CCO)c1nc2ccccc2[nH]1 | inactive | inactive | inactive
14 | COc1ccc(NC(=O)N(C)C[C@H]2Oc3ccc(NC(=O)C4CC4)cc3C(=O)N([C@@H](C)CO)C[C@H]2C)cc1 | inactive | inactive | inactive
15 | C=C[C@@](C)(O)CC/C=C(\C)C(=O)O[C@@H]1[C@@H]2O[C@]2(C)[C@H]2[C@H](O[C@@H]3O[C@H](CO)[C@@H](O)[C@H](O)[C@H]3O)OC=C[C@@]12O | inactive | inactive | inactive
16 | C[C@@H]1CN([C@@H](C)CO)C(=O)c2cc(NS(=O)(=O)c3cn(C)cn3)ccc2O[C@@H](C)CCCCO[C@@H]1CN(C)S(=O)(=O)c1cn(C)cn1 | inactive | inactive | inactive
17 | Nc1ccccc1CO | inactive | active | inactive
18 | COCCNC(=O)C[C@@H]1C[C@@H]2c3cc(NS(C)(=O)=O)ccc3O[C@@H]2[C@H](CO)O1 | inactive | inactive | inactive
19 | C[C@H](CO)N1C[C@H](C)[C@H](CN(C)C(=O)Nc2ccccc2)Oc2ccc(NC(=O)Cn3cnnn3)cc2CC1=O | inactive | inactive | inactive
20 | C[C@@H]1CN([C@@H](C)CO)C(=O)c2c(c3ccccc3n2C)-c2ccccc2CO[C@H]1CN(C)Cc1cccc(O)c1 | inactive | inactive | inactive
21 | C[C@H](CO)N1C[C@H](C)[C@H](CN(C)S(=O)(=O)c2cccc(F)c2)Oc2ncc(-c3ccccc3)cc2C1=O | inactive | inactive | inactive
22 | COc1ccc(S(=O)(=O)Nc2ccc3c(c2)C(=O)N([C@H](C)CO)C[C@H](C)[C@@H](CN(C)S(=O)(=O)c2cn(C)cn2)O3)cc1 | inactive | inactive | inactive
23 | C[C@@H]1CN([C@H](C)CO)C(=O)c2cc(-c3ccncc3)cnc2O[C@H]1CN(C)S(=O)(=O)c1ccc(F)cc1 | inactive | inactive | inactive
24 | Cc1noc(C)c1NC(=O)N[C@@H]1C=C[C@@H](CC(=O)NCCCN(C)C)O[C@@H]1CO | inactive | inactive | inactive
25 | C[C@@H]1CN([C@H](C)CO)C(=O)c2cc(C#CCN(C)C)cnc2O[C@@H]1CN(C)Cc1ccc2c(c1)OCO2 | inactive | inactive | inactive
26 | COc1ccc(NC(=O)Nc2cccc3c2O[C@H](CN(C)Cc2ccc(Oc4ccccc4)cc2)[C@@H](C)CN([C@H](C)CO)C3=O)cc1 | inactive | inactive | inactive
27 | C[C@H]1CN([C@@H](C)CO)C(=O)Cc2cc(NC(=O)C3CC3)ccc2O[C@H]1CN(C)Cc1ccc(Oc2ccccc2)cc1 | inactive | inactive | inactive
28 | C[C@H]1CC=CC[C@H](c2ccc3c(c2)OCO3)NC(=O)[C@H](Cc2ccccc2)N(C)C(=O)c2ccccc2O1 | inactive | inactive | inactive
